Out of some 310,000 compounds screened, about 2,200 (0.71%) showed an effect of 50% or more. The effect is printed as a negative number. The list shows a part of the results.
Molecular target: human ether-à-go-go-related gene (hERG) potassium channel (human, UniProt Q12809)
Assay: primary screen, population patch clamp on CHO cells stably expressing hERG

Chain of human ether-à-go-go-related gene (hERG) potassium channel (Q12809 whole entry, looked up): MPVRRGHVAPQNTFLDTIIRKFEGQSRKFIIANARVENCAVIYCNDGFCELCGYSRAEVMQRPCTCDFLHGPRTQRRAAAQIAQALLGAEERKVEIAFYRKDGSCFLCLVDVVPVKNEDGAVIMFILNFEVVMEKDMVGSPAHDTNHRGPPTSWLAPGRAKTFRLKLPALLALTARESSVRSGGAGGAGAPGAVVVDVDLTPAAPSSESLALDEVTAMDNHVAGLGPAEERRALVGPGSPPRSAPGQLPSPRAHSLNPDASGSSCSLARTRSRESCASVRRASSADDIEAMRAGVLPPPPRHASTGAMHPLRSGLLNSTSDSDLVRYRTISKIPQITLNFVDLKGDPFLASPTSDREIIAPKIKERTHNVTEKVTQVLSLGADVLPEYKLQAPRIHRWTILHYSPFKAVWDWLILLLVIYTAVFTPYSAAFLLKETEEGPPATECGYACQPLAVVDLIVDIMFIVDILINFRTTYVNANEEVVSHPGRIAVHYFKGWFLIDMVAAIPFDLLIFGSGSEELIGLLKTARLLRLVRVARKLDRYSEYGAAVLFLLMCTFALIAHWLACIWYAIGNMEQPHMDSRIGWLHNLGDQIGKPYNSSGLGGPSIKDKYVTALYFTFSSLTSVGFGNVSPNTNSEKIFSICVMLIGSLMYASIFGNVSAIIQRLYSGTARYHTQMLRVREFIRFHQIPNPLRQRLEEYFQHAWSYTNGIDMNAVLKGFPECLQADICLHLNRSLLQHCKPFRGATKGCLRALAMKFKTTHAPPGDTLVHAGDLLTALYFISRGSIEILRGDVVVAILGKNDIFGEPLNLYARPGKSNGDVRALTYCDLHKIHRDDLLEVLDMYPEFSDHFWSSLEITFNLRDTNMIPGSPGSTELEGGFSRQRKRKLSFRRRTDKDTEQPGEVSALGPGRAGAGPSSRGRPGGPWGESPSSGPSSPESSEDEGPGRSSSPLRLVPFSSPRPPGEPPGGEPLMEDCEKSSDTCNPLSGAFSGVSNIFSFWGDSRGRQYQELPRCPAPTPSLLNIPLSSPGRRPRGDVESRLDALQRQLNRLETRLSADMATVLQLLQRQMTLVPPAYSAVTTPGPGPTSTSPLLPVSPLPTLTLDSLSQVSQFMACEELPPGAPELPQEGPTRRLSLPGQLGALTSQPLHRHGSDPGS

SMILES | hERG current change (%, negative = inhibition) at 1uM [%]
COc1cc(C(=O)NCc2cc3ccccc3n2C)cc(OC)c1OC | 12.6
CCCc1cc(C(=O)N2CCCN(C)CC2)cs1 | 15.9
COc1ccc(CNC(=O)COC(=O)CC2CC3CCC2C3)cc1OC (centres unmarked) | 6.66
COc1ccc(C(=O)N2CCCC(C(=O)O)C2)c2ccccc12 (centres unmarked) | 17.4
CCCc1nc2n[nH]c(N)c2c2c1CCCC2 | 8.61
CCOC(=O)c1c(C)c(C(=O)NCc2ccc3c(c2)OCO3)c(C)n1C | 2.09
Cc1cc(C)cc(OCC(=O)N/N=C/c2ccccn2)c1 | 5.76
COc1ccc(C(=O)Oc2coc(CSc3nnc(NC(=O)c4cccs4)s3)cc2=O)cc1 | 12.8
Cc1cc(NC(=O)CSc2nnc(-c3ccc(O)cc3)o2)no1 | 7.14
CC(c1ccccc1F)n1cc(C(=O)Nc2ccc3nc[nH]c3c2)nn1 (centres unmarked) | 9.42
Cc1ccc2nc(NCc3ccccc3)c(C=NCc3cccnc3)c(=O)n2c1 | 12.1
Cc1ccc(Nc2c(-c3ccccc3O)nc3cnccn23)cc1 | 8.71
CCCN(C(=O)c1cc(S(=O)(=O)N2CCCCCC2)ccc1OC)C1CCS(=O)(=O)C1 (centres unmarked) | 2.79
Clc1ccc2nc(N3CCN(c4ccccc4)CC3)sc2c1 | 13.3
Cc1ccc(C)c(N(C)C(=O)c2coc(=O)c3ccccc23)c1 | -8.53
O=C(NNC(=S)Nc1ccccc1)C1CC1 | -1.62
CCOc1ccc(N(Cc2nnc3n2CCCCC3)C(=O)Nc2cccc(C)c2)cc1 | 4.32
Cc1nc2cc(-c3cccc(F)c3)nn2c(C)c1CCC(=O)N1CCC2(CC1)OCCO2 | -17.6
COc1ccc(N2CCC(CNC(=O)Nc3cccc(OC)c3)C2)cc1 (centres unmarked) | -2.65
CN(C)/C=C(\C#N)C(=O)c1cccnc1Oc1cccc(F)c1 | 0.839
Cc1ccc(SCCNC(=O)CN(c2ccc3c(c2)OCO3)S(C)(=O)=O)cc1 | -4.28
O=C(c1cc2ccccc2cc1O)N1CCCC1 | 16.9

SMILES | hERG current change (%, negative = inhibition) at 1uM [%]
CCSc1ccccc1C(=O)Nc1ccc2c(c1)OCO2 | 17.9
CN(C)C1(CNC(=O)C2CCN(S(=O)(=O)c3ccccc3C(F)(F)F)CC2)CCCCC1 | -5.31
O=C(Cn1cnc2ccccc2c1=O)NCCC(=O)N1CCN(Cc2ccccc2)CC1 | 10.1
Cc1cc(=O)[nH]c(-c2ccc(C(F)(F)F)cc2)n1 | 2.88
Cc1c(NC(C)C)c(=O)n(-c2ccccc2)n1C.Cl | 9.52
O=C(c1ccc(NS(=O)(=O)c2cccc(C(F)(F)F)c2)cc1)N1CCCC1 | -4.22
CC1CCN(C(=O)CSc2nc3[nH]ncc3c(=O)[nH]2)CC1 | 16.3
Cc1ccc(/C=N/NC(=O)C2CCN(Cc3ccc(F)cc3Cl)CC2)o1 | -9.1
COCC(C)N=C1NN=C(c2c[nH]c3ccccc23)CS1 (centres unmarked) | 9.89
COc1cc(OC)c(C(=O)OCC(=O)N(Cc2ccccc2)C(C)(C)C)cc1OC | 14.5
CCN(CC)c1nc2c(c(=O)[nH]c(=O)n2C)n1CCOc1ccccc1 | 21
Cc1cccc(C(=O)NNC(=O)C23CC4CC(CC(C4)C2)C3)c1O | 17.4
COc1ccc(/C=C(\NC(=O)c2ccc([N+](=O)[O-])cc2)C(=O)NCCN2CCOCC2)cc1 | -45.8
CCN1c2ccccc2-c2nc3ccccc3n2C1c1cccnc1 (centres unmarked) | 7.14
COc1ccc(C2=NOC(C(=O)Nc3c(C)n(C)n(-c4ccccc4)c3=O)C2)cc1OC (centres unmarked) | 11.9
N#Cc1cccc(NC(=S)Nc2ccccc2)c1 | 10
CCN(CC)CCNC(=O)c1ccc(NC(=O)c2cccc(S(=O)(=O)[N-]c3ccc(C)cc3)c2)cc1.[K+] | -3.75
CC(C)(C)C(=O)CN1C(=O)NC(C)(Cc2ccc3c(c2)OCO3)C1=O (centres unmarked) | 6.6
COC(=O)c1cccc(Nc2ncnc3sccc23)c1 | 2.8
COc1cc(C(=O)N/N=C/c2ccccn2)cc(OC)c1OC | 11.2
COc1cc(/C=C2/NC(=O)NC2=O)cc(Br)c1OCc1ccc(C(=O)O)cc1 | 8.29
CC(C)(C)NC(=O)CN(c1cccc([N+](=O)[O-])c1)S(=O)(=O)c1ccccc1 | 1.84

Reference: paper PMC4336329 (PLoS ONE, 2015)
